Data: article PMC11111408, “Concurrent inhibition of oncogenic and wild-type RAS-GTP for cancer therapy” (Nature, 2024)
Not every entry of the source has a single result; some have several. This list holds those alone. An entry can have further records. Values that stand side by side appear to be repeats (runs, samples, wells or individuals).

Target: HRAS^G13R (Homo sapiens, UniProt P01112+P62937, G13R)
Assay: Biochemical RAS–RAF (BRAF RBD) disruption, TR-FRET
Source text: Time-resolved fluorescence resonance energy transfer (TR-FRET) was used as previously described to assess disruption of the interactions between wild-type RAS or the mutant oncogenic RAS proteins and the RAS-binding domain of BRAF, and to assess the induction of interactions between the RAS proteins and CYPA[12].

CCn1c(-c2cc(N3CCN(C4CC4)CC3)cnc2[C@H](C)OC)c2c3cc(ccc31)-c1csc(n1)C[C@H](NC(=O)[C@H]1[C@@H]3COC[C@@H]31)C(=O)N1CCC[C@H](N1)C(=O)OCC(C)(C)C2 [RMC-7977]
EC50: 23.7 nM and 24 nM [columns of one line]
